Data from paper PMC4336329 (PLoS ONE, 2015).
About 14,000 (4.5%) of roughly 310,000 compounds showed an effect of 50% or more. The effect is printed as a negative number. The list shows a part of the results.

Biological target: human ether-à-go-go-related gene (hERG) potassium channel (human, UniProt Q12809)
Test: primary screen, population patch clamp on CHO cells stably expressing hERG
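Also: peak tail current of the secondary pulse compared with the same well before compound.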

Chain of human ether-à-go-go-related gene (hERG) potassium channel (Q12809 whole entry, looked up): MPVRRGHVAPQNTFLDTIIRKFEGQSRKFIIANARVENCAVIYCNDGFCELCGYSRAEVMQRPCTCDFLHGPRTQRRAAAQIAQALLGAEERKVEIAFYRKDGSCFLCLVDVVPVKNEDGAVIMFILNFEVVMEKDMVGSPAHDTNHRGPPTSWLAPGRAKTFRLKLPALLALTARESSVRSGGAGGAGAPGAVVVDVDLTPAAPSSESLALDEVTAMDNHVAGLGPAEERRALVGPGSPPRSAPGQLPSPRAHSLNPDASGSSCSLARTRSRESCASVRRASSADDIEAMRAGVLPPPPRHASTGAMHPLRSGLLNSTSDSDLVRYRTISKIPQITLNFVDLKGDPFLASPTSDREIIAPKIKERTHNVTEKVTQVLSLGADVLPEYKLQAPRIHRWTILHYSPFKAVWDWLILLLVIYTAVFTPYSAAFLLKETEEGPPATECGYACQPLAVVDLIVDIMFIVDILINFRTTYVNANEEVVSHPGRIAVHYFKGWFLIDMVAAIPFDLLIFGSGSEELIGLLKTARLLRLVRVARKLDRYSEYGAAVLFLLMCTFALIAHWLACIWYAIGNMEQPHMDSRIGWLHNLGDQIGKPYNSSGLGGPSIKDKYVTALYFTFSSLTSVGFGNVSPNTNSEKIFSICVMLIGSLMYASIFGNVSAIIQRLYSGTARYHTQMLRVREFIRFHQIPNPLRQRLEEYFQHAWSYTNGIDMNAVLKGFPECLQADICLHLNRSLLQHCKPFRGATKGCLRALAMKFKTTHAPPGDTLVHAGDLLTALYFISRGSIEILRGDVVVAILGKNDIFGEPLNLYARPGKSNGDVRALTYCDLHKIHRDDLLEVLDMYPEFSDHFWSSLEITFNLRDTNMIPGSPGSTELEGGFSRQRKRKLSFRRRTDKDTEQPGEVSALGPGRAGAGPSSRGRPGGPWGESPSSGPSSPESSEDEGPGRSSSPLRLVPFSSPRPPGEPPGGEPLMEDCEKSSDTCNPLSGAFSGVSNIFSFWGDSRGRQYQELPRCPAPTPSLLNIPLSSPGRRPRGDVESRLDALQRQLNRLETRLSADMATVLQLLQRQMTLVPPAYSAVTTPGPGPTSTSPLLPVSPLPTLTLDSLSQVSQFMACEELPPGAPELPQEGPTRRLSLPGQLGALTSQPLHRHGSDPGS

| Compound | hERG current change (%, negative = inhibition) at 10uM [%] |
| --- | --- |
| Cc1cccc(S(=O)(=O)NNC(=O)Cc2cccn2C)c1 | 11.9 |
| N/C(=N\OC(=O)Cc1ccccc1)c1cccc(Br)c1 | 32.7 |
| Cc1nn(CC(=O)N2CCN(C34CC5CC(CC(C5)C3)C4)CC2)c(C)c1[N+](=O)[O-] | -1.7 |
| CCOC(=O)/C=C1\SC(C)C(=O)N1CC(=O)N(CCC#N)c1ccccc1 (centres unmarked) | -32.3 |
| CCOC(=O)c1c(NC(=O)c2ccc(S(=O)(=O)N3CCOCC3)cc2)sc2c1CCN(C(C)C)C2 | -49.1 |
| C[N+]1(C)CCc2cc3c(cc2[C@H]1[C@@H]1OC(=O)c2c1ccc1c2OCO1)OCO3.[I-] | 18.8 |
| O=C(COc1ccc(Cl)cc1Cl)Nc1ccc(C(=O)Nc2ccccc2C(=O)O)cc1 | 2.06 |
| CSC(=NC#N)N1CCN(c2ccccc2)CC1 | -2.95 |
| Cc1ccc2nc(/C(C#N)=N/O)[nH]c2c1 | 18.2 |
| Cc1ccc(C)c(NC(=S)NNC(=O)c2csc3c2CCC(C)C3)c1 (centres unmarked) | 3.17 |
| COc1ccc(Cl)cc1C(=O)NN=C1CCCC1 | -5.93 |
| O=C(c1ccc2c(c1)OCCO2)N1CCN(c2ccc([N+](=O)[O-])cc2)CC1 | -47.1 |
| C#CCOCCOCCOCCNc1nc(N2CCN(C(=O)[C@H](CCCC[NH3+])n3cc(CC(C)O)nn3)CC2)nc(N2CCN(C(=O)[C@H](CCCC[NH3+])n3cc(CC(C)O)nn3)CC2)n1.[Cl-] (some centres unmarked) | 2.92 |
| CC(C)(C)[C@H]1CCC(=O)N([C@H](CSc2ccc(Br)cc2)Cc2ccccc2)CC1 | 4.84 |
| O=C(c1ccc(Cl)c(Cl)c1)N1CCOCC1 | -1.75 |
| CN(CC(=O)Nc1ccccc1Cl)C(=O)COC(=O)c1ccc(Cl)cc1[N+](=O)[O-] | -4.29 |
| Cc1sc(NC(=O)c2ccco2)c(C(c2cccnc2)N2CCN(CCO)CC2)c1C (centres unmarked) | -20.9 |
| CC1(C)CC(=O)C2=C(C1)C(c1cn(-c3ccccc3)nc1-c1ccccc1)C(C#N)=C(N)O2 (centres unmarked) | -13 |
| Cc1nc(N2CCN(Cc3ccccc3)CC2)[nH]c(=O)c1C | -4.93 |
| O=C1CCCCCN1Cc1ccccc1 | -0.0219 |
| COc1ccc(NC(=O)/C(Cl)=C(/Cl)S(=O)Cc2ccccc2)cn1 (centres unmarked) | -0.451 |
| O=C(Nc1ccccc1F)NC1CC1 | 15.4 |

| Compound | hERG current change (%, negative = inhibition) at 10uM [%] |
| --- | --- |
| OCC1(Cc2cccc(Cl)c2)CCCN(Cc2sc(N3CCCC3)nc2Cl)C1 (centres unmarked) | -1.04 |
| CCOC(=O)c1sc(NC(=O)C2CC(=O)N(c3ccc(OCC)cc3)C2)nc1C (centres unmarked) | -14.5 |
| CC(C)CC1(C(=O)NCc2cc(F)cc(C(F)(F)F)c2)C=CCN1C(=O)c1ccccc1 (centres unmarked) | 0.637 |
| COCc1cc(C)nc(SCC[N+](C)(C)CC(=O)Nc2cccc(C)c2)c1C#N.[Cl-] | -33.3 |
| O=C1C=C(c2ccc(Oc3ccccc3)cc2)C[C@@H](c2ccc3c(c2)OCO3)C1 | 7.39 |
| CCC(=O)Nc1ccc(C(=O)NNC(=O)c2ccccc2)cc1 | 1.89 |
| Oc1ccc(-c2onc3ccc(Cl)cc23)cc1 | -6.55 |
| COC(=O)[C@H](Cc1ccccc1)NC(=O)O[C@H]1C(=O)c2ccc(OC)cc2O[C@@H]1c1ccc2c(c1)OCO2 | 1.54 |
| C=CCC1(NCc2ccco2)CCN(CC)CC1.O=C(O)C(=O)O | -5.28 |
| CCOc1cc(CNc2ccc3c(c2)OCCO3)cc(Br)c1OCC | 4.9 |
| Cc1cc2ncn(C(=O)N3CCC(C)CC3)c2cc1C | -4.06 |
| Cc1cccc(COc2ccccc2C(=O)OCC(=O)N(C)c2c(N)n(Cc3ccccc3)c(=O)[nH]c2=O)c1 | 20.8 |
| Cc1cc(C)nc(Nc2cccc(Cl)c2)n1.Cl | 21.8 |
| O=C(NCc1ccccc1CN1CCCC1)c1cccc(S(=O)(=O)N2CCOCC2)c1 | -44.5 |
| O=C(Cc1c(F)cccc1Cl)NCC1CCCO1 (centres unmarked) | 9.86 |
| Cc1ccc(-c2cc(C(=O)NCc3cnn(C)c3)c3cc(Br)ccc3n2)cc1 | -3.68 |
| O=C(Nc1nnc(-c2ccccc2F)s1)c1cccnc1 | 5.14 |
| O=C(Oc1cccc2ccccc12)C1CC1 | 16.6 |
| CCc1ccc(CN(C)C(=O)CCc2nnc(CCc3ccccc3OC)o2)nc1 | -1.47 |
| COc1ccccc1OCCNC(=O)Nc1cc(F)c(F)cc1Cl | 2.75 |
| COc1cc(C(F)(F)F)c(C(=O)N(C)Cc2cc(Cl)cc(Cl)c2)cn1 | -18.9 |
| COc1ccc(C(=O)N2CC(c3ccccc3)CC2=O)cc1 (centres unmarked) | 4.56 |
